About 2,400 (1.1%) of roughly 220,000 compounds were called active. About 7% were inconclusive and are not listed. Calls follow the shape of the dose curve; as a rule, active = well fitted inhibition curve with a large enough effect; inconclusive = small, poorly fitted or top-dose-only effect, or effect the other way; inactive = no such curve, though single readings can be large or run the other way. The entries are a selection whose mix differs from that of the whole data set.
Test: qHTS Multiplex Assay to Identify Dual Action Probes in a Cell Model of Huntington: Aggregate Formation (GFP); also: nearly all actives have a fitted effect of over 60% in size
Details: PC12 HttQ103-GFP aggregates, Acumen cytometry, 40 h; series mostly up to 46.1 µM; activity change, negative = inhibition: at the top concentration
From the text: NIH Chemical Genomics Center [NCGC]
NIH Molecular Libraries Probe Production centers Network [MLPCN]
Assay Submitter (PI): Wei Zheng
Huntington's disease is a neurodegenerative disorder caused by a trinucleotide repeat expansion in Exon 1 of the Huntingtin gene. The CAG trinucleotide encodes glutamine and polyglutamine expansions cause cell death in selective areas of the brain. Huntington polyglutamine repeats have the tendency to form aggregates which are observable in later stages of the disease. The exact nature of the aggregates, whether toxic, protective, or insignificant, is unclear.
A stable PC12 cell line containing a gene fusion of Exon 1 of the Huntingtin gene linked to GFP under the control of the inducible ecdysone promoter were used as the cell-based model of Huntington Disease for high throughput screening. Exon 1 of the Huntingtin gene contained an expansion of 103 polyglutamines (Q103) which, when expressed, caused cell death and distinct, bright GFP aggregates. The amount of cell death and the size and intensity of GFP aggregates increased over time and induction level. The cell death were quantified with a measurement of ATP content in the cells. A maximal 40-50% of cell death was observed when the Huntington gene was induced in this cell line.
We optimized this assay in a homogeneous 1536 well format. A quantitative high throughput screen (qHTS) was conducted on the PC12 cells which were induced to express the toxic fusion construct. Small molecules which reduced aggregate formation were identified bu using a laser scanning cytometer calibrated to detect the aggregates in cell lysates.
PC12 cells stably containing a construct with an ecdysone inducible promoter expressing GFP fused to the exon 1 of HTTQ103 (Huntington protein which containing a 103 ployglutamine expansion) were used.
NCGC Assay Protocol Summary:
Sequence, Parameter, Description
1, Reagent, 5 uL 1500 cells/well 1536 TC treated White clear bottom plate
2, Compound, 23 nL Tebufenozide inducer (100 nM final) to all columns
3, Compound, 23 nL 40 uM to 0.5 nM Libraries
5, Reagent, 5 ul ATPLite cell death assay reagent
6, Detector, Aggregate quantitation by Acumen Explorer
Media consisted of phenol red free DMEM + 5% equine serum (Hyclone # SH30072.03 ), 5% supplemented Bovine Calf Serum (Hyclone # SH30074.03 ), 1x pen/strep, no G418
Acumen Explorer was used to quantitate GFP aggregates using the following criteria: […] laser excitation, 500-530 nm emission, the PMT was set at a voltage of 450 volts, and objects ranging in size of […] in size having a signal of 6 STDEV above background were collected.
Control columns: 1 = DMSO, 2= 2 uM teb dilns (1:1), 4 = 100 nM Teb inducer. Sample columns received 100 nM Teb.
% is scaled to controls: 0 for no effect and ±100 for the full control effect; potency is read from the fitted curve at half-maximal effect.

SMILES | activity change, negative = inhibition | Potency
CC(C)C(=O)Nc1ccc([N+](=O)[O-])c(C(F)(F)F)c1 | inactive: -13.2% | –
CC(=O)[O][Hg][c]1ccccc1 | – | active: 1.58 µM
CNCCC(Oc1ccc(C(F)(F)F)cc1)c1ccccc1 (configuration not stated) | inactive: 1.04% | –
CCCCCn1c(=O)c(C(=O)NCc2ccccn2)c(O)c2ccccc21 | – | active: 31.6 µM
CN1CCC2(CC1)C(C#N)=C(N)NC(S)=C2C#N | inactive: 14.3% | –
Clc1ccc(CS[C@@H](Cn2ccnc2)c2ccc(Cl)cc2Cl)cc1 | inactive: -9.38% [at 20.6 µM] | –
C[C@H]1CC[C@@H]2[C@@H](C)[C@H]3[C@H](C[C@H]4[C@@H]5CC=C6C[C@@H](O[C@@H]7O[C@H](CO)[C@H](O)[C@H](O[C@@H]8O[C@H](CO)[C@@H](O)[C@H](O)[C@H]8O)[C@H]7O[C@@H]7O[C@@H](C)[C@H](O)[C@@H](O)[C@H]7O)CC[C@]6(C)[C@H]5CC[C@]34C)N2C1 | inactive: -25.4% | –
O=C1NC(=O)N(Cc2ccccc2)C(=O)/C1=C/C=C/c1ccco1 | inactive: -8.7% [at 9.22 µM] | –
O=C(Nc1ccc(Cl)cc1)Nc1ccc(Cl)c(Cl)c1 | – | active: 11.2 µM
Cn1nc(-c2ccc(OCC(=O)N3CCN(Cc4ccccc4)CC3)cc2)c2ccccc2c1=O | inactive: 3.39% | –
COC(=O)C1=CO[C@@H](C)[C@@H]2CN3CC[C@@]4(C(=O)Nc5ccccc54)[C@@H]3C[C@H]12 | inactive: -0.468% | –
COC(=O)C1=COC(C)C2CN3CCC4(C(=O)Nc5ccccc54)C3CC12 (configuration not stated) | inactive: 8.53% [at 9.22 µM] | –
